These results are taken from the antibiotic and cytotoxicity screens of Wong et al. (2023).

Some of the results follow.

The subject of one test is HSkMC. Nature of the test: cytotoxicity call (relative viability < 0.9). As to conditions: 10 µM.
The next test relates to HepG2. Nature of the test: cytotoxicity call (relative viability < 0.9). As to conditions: 10 µM.
The test system of another test is S. aureus RN4220. Nature of the test: growth inhibition call (relative growth <= 0.2). To be noted: 50 µM.

Take `CO[C@@H]1CN(C)C(=O)c2ccc(NC(=O)Nc3cccc(F)c3)cc2OC[C@H](C)N(C(=O)Nc2c(C)noc2C)C[C@@H]1C`: the cytotoxicity call with HSkMC and in the test on HepG2 was “inactive” throughout. In the test on S. aureus RN4220, the growth inhibition call is “inactive”.

Take `CN1C(=O)c2cc(NC(=O)Cc3cccs3)ccc2OC[C@H]2O[C@@H](CC(=O)NCCCN3CCOCC3)CC[C@H]21`: the cytotoxicity call in the test with HSkMC and in the test with HepG2 was “inactive” throughout. Further, the growth inhibition call in the test with S. aureus RN4220 was “inactive”.

As for `C[C@@H]1CN([C@H](C)CO)C(=O)Cc2cc(NC(=O)CCN3CCOCC3)ccc2O[C@@H]1CN(C)C(=O)Nc1ccc2c(c1)OCO2`, the cytotoxicity call in the test on HSkMC and with HepG2 was “inactive” in each case. For the same molecule, the growth inhibition call with S. aureus RN4220 is “inactive”.

Regarding `CC(C)NC(=O)Nc1ccc2c(c1)C(=O)N([C@H](C)CO)C[C@@H](C)[C@H](CN(C)Cc1ccc3c(c1)OCO3)O2`, the cytotoxicity call in the test with HSkMC and in the test with HepG2 was “inactive” each time. Besides, the growth inhibition call with S. aureus RN4220 was “inactive”.

As for `C[C@H](CO)N1C[C@H](C)[C@@H](CN(C)Cc2ccc(-c3ccccc3)cc2)Oc2ccc(NC(=O)C3CC3)cc2C1=O`, the cytotoxicity call in the test on HSkMC and with HepG2 was “inactive” each time. Further, the growth inhibition call in the test with S. aureus RN4220 was “inactive”.

Turning to `C[C@@H]1CN([C@H](C)CO)C(=O)Cc2cc(NS(=O)(=O)c3cn(C)cn3)ccc2O[C@H]1CN(C)C(=O)Nc1ccc2c(c1)OCO2`, the cytotoxicity call with HSkMC and with HepG2 was “inactive” throughout. For the same molecule, the growth inhibition call in the test on S. aureus RN4220 was “inactive”.

As for `COC(=O)c1c(CC[C@@H](CO)NC(=O)N[C@H](Cn2cc(Cc3ccccc3)nn2)C(C)C)oc(C(C)=O)c1C(=O)OC`, the cytotoxicity call in the test with HSkMC and in the test on HepG2 was “inactive” each time. The growth inhibition call in the test on S. aureus RN4220 was “inactive”.

As to `NC(=O)N1CCC[C@H](C(=O)O)C1`, the cytotoxicity call in the test on HSkMC and with HepG2 was “inactive” in each case. Also, the growth inhibition call in the test with S. aureus RN4220 was “inactive”.

For `C[C@@H]1CN([C@@H](C)CO)C(=O)c2cccc(NC(=O)C3CC3)c2O[C@H]1CN(C)S(=O)(=O)c1ccccc1`, the cytotoxicity call in the test on HSkMC and in the test on HepG2 was “inactive” in each case. The growth inhibition call in the test on S. aureus RN4220 was “inactive”.

For the molecule `COc1ccc(NC(=O)Nc2ccc3c(c2)C(=O)N([C@@H](C)CO)C[C@@H](C)[C@H](CN(C)C(=O)CCC(F)(F)F)OCCCC[C@H](C)O3)cc1`, the cytotoxicity call with HSkMC and in the test with HepG2 was “inactive” in each case. Further, the growth inhibition call in the test on S. aureus RN4220 is “inactive”.

As for `C[C@H]1CN([C@@H](C)CO)C(=O)c2cccc(NC(=O)Nc3ccc(C(F)(F)F)cc3)c2O[C@H]1CN(C)Cc1ccc(C(F)(F)F)cc1`, the cytotoxicity call in the test on HSkMC and with HepG2 was “inactive” in each case. Also, the growth inhibition call in the test with S. aureus RN4220 was “inactive”.

As for `C[C@H](NC(=O)C[C@H]1C=C[C@H](NC(=O)CN2CCOCC2)[C@H](CO)O1)c1ccccc1`, the cytotoxicity call in the test with HSkMC and in the test on HepG2 was “inactive” each time. In the test with S. aureus RN4220, the growth inhibition call was “inactive”.

On to `COc1ccc(CN(C)C[C@@H]2Oc3ccc(NS(=O)(=O)c4cn(C)cn4)cc3C(=O)N([C@@H](C)CO)C[C@H]2C)cc1`, for which the cytotoxicity call in the test on HSkMC and in the test with HepG2 was “inactive” throughout. In addition, the growth inhibition call in the test with S. aureus RN4220 was “inactive”.

Turning to `CO[C@@H]1CN(C)C(=O)c2ccc(NS(=O)(=O)CC(F)(F)F)cc2OC[C@@H](C)N(Cc2nccs2)C[C@@H]1C`, the cytotoxicity call with HSkMC and with HepG2 was “inactive” each time. In addition, in the test with S. aureus RN4220, the growth inhibition call was “inactive”.

With `NCC[C@@H]1CC[C@@H](NC(=O)C2CCCC2)[C@H](CO)O1`, the cytotoxicity call in the test on HSkMC and in the test on HepG2 was “inactive” throughout. The growth inhibition call with S. aureus RN4220 is “inactive”.

As to `COc1ccc(S(=O)(=O)Nc2ccc3c(c2)C(=O)N([C@H](C)CO)C[C@@H](C)[C@@H](CN(C)Cc2ccccc2)OCCCC[C@H](C)O3)cc1`, the cytotoxicity call in the test on HSkMC and in the test on HepG2 was “inactive” throughout. For the same molecule, in the test on S. aureus RN4220, the growth inhibition call is “inactive”.

As to `Cc1ccc(S(=O)(=O)Nc2ccc3c(c2)C(=O)N([C@@H](C)CO)C[C@@H](C)[C@H](CN(C)C(=O)Nc2c(C)noc2C)OCCCC[C@H](C)O3)cc1`, the cytotoxicity call with HSkMC and in the test on HepG2 was “inactive” each time. The growth inhibition call with S. aureus RN4220 is “inactive”.

Consider `C[C@@H]1CCCCO[C@H](CN(C)S(=O)(=O)c2ccc(F)cc2)[C@H](C)CN([C@H](C)CO)C(=O)c2cc(NC(=O)Nc3ccc(F)cc3)ccc2O1`, for which, in the test with HSkMC, the cytotoxicity call was “inactive”. The cytotoxicity call in the test with HepG2 is “active”. The growth inhibition call with S. aureus RN4220 was “inactive”.

In the case of `CC(=O)O[C@@H]1[C@@H]2OC(=O)[C@H](OC(C)=O)[C@@H]2O[C@H]1n1ccc(=O)[nH]c1=O`, the cytotoxicity call with HSkMC and with HepG2 was “inactive” each time. Besides, the growth inhibition call with S. aureus RN4220 is “inactive”.

For the molecule `COc1ccc(S(=O)(=O)N(C)C[C@H]2Oc3ccc(NC(=O)CCN4CCOCC4)cc3C(=O)N([C@@H](C)CO)C[C@H]2C)cc1`, the cytotoxicity call in the test on HSkMC and in the test with HepG2 was “inactive” in each case. For the same molecule, the growth inhibition call in the test with S. aureus RN4220 is “inactive”.

Regarding `CNC(=O)C[C@@H]1CC[C@H]2[C@@H](COC[C@@H](O)CN2C(=O)Nc2ccc3c(c2)OCO3)O1`, the cytotoxicity call with HSkMC and in the test with HepG2 was “inactive” each time. In addition, in the test on S. aureus RN4220, the growth inhibition call was “inactive”.

For `C[C@H]1CN([C@@H](C)CO)C(=O)Cc2cc(NC(=O)CCCCCC(=O)Nc3ccccc3N)ccc2O[C@H]1CN(C)C(=O)Nc1ccccc1`, the cytotoxicity call in the test on HSkMC and in the test on HepG2 was “inactive” throughout. Further, in the test with S. aureus RN4220, the growth inhibition call was “inactive”.

In the case of `C[C@@H]1CN([C@H](C)CO)C(=O)CCCn2cc(nn2)CO[C@H]1CN(C)S(C)(=O)=O`, the cytotoxicity call in the test on HSkMC and with HepG2 was “inactive” each time. For the same molecule, the growth inhibition call in the test on S. aureus RN4220 is “inactive”.

Regarding `Cc1noc(C)c1S(=O)(=O)Nc1ccc2c(c1)CC(=O)N([C@@H](C)CO)C[C@H](C)[C@@H](CN(C)S(=O)(=O)c1ccc(Cl)cc1)O2`, the cytotoxicity call in the test on HSkMC and with HepG2 was “inactive” in each case. Besides, the growth inhibition call in the test with S. aureus RN4220 is “inactive”.

Regarding `Cc1ccc2sc(N(CCCN(C)C)C(=O)c3ccc(S(=O)(=O)N(C)Cc4ccccc4)cc3)nc2c1C`, the cytotoxicity call with HSkMC and with HepG2 was “active” in each case. For the same molecule, in the test with S. aureus RN4220, the growth inhibition call was “inactive”.

Consider `C[C@H](CO)N1C[C@H](C)[C@H](CN(C)Cc2ccc(-c3ccccc3)cc2)Oc2c(NC(=O)Nc3ccc4c(c3)OCO4)cccc2C1=O`, for which the cytotoxicity call with HSkMC and with HepG2 was “inactive” each time. Also, the growth inhibition call in the test with S. aureus RN4220 is “inactive”.

As for `Cc1noc(C)c1S(=O)(=O)N(C)C[C@@H]1Oc2ccc(NS(=O)(=O)c3ccccc3)cc2CC(=O)N([C@@H](C)CO)C[C@@H]1C`, the cytotoxicity call in the test on HSkMC and with HepG2 was “inactive” in each case. In addition, the growth inhibition call with S. aureus RN4220 is “inactive”.

Take `O=C1N(Cc2ccccc2)Cc2ccccc2C[C@@]12N=C(c1ccc(OCCCO)cc1)O[C@H]2c1ccccc1`: the cytotoxicity call in the test on HSkMC (human skeletal muscle cells) and in the test with HepG2 was “active” throughout. Moreover, the growth inhibition call in the test with S. aureus RN4220 is “inactive”.

`COc1ccc(CN(C)C[C@@H]2OCCCC[C@@H](C)Oc3ccc(NC(=O)C4CCCCC4)cc3C(=O)N([C@@H](C)CO)C[C@H]2C)cc1`: the cytotoxicity call with HSkMC and in the test on HepG2 was “inactive” in each case. Besides, in the test with S. aureus RN4220, the growth inhibition call is “inactive”.

Turning to `COc1ccc(NC(=O)Nc2ccc3c(c2)C(=O)N([C@H](C)CO)C[C@@H](C)[C@H](CN(C)S(=O)(=O)c2cn(C)cn2)O3)cc1`, the cytotoxicity call with HSkMC and in the test on HepG2 was “inactive” throughout. Further, the growth inhibition call in the test on S. aureus RN4220 was “inactive”.

For the molecule `C[C@@H]1CN([C@@H](C)CO)C(=O)c2cc(NC(=O)Nc3cccc4ccccc34)ccc2O[C@@H](C)CCCCO[C@H]1CN(C)CC1CCCCC1`, the cytotoxicity call in the test with HSkMC and in the test on HepG2 was “active” each time. Moreover, the growth inhibition call in the test on S. aureus RN4220 was “inactive”.

For `C[C@@H]1CCCCO[C@@H](CN(C)C(=O)c2ccccc2)[C@@H](C)CN([C@H](C)CO)C(=O)c2cc(NC(=O)Nc3ccc4c(c3)OCO4)ccc2O1`, the cytotoxicity call in the test with HSkMC and in the test on HepG2 was “inactive” in each case. In the test with S. aureus RN4220, the growth inhibition call is “inactive”.

`COc1ccc(N2C(=O)N(CCc3ccc(OC)c(OC)c3)[C@@H]3[C@@H](Cc4ccccc4)[C@H]2C(=O)N3Cc2ccccc2)cc1`: the cytotoxicity call in the test with HSkMC and in the test on HepG2 was “inactive” each time. In addition, the growth inhibition call in the test with S. aureus RN4220 is “inactive”.

Take `C[C@H](CO)N1C[C@H](C)[C@@H](CN(C)Cc2ccc(-c3ccccc3)cc2)Oc2c(NC(=O)Nc3ccc4c(c3)OCO4)cccc2C1=O`: the cytotoxicity call with HSkMC and in the test on HepG2 was “inactive” throughout. Further, the growth inhibition call with S. aureus RN4220 is “inactive”.

Consider `CCCN(C)C[C@@H]1Oc2cc(C#Cc3ccc(OC)cc3)ccc2S(=O)(=O)N([C@H](C)CO)C[C@@H]1C`, for which the cytotoxicity call with HSkMC and in the test on HepG2 was “inactive” throughout. The growth inhibition call in the test with S. aureus RN4220 was “inactive”.
